Results on 23 molecules are retold here after PubChem BioAssay AID1346428 (National Center for Advancing Translational Sciences (NCATS), 2018).

Structures are written as SMILES. Values joined by “and” are separate entries in the source; they are usually repeats but may differ in a detail not shown here. Identical values can stand only once. Screen size: about 48,000 compounds; about 1,200 (2.5%) were called active. Roughly 2% stayed inconclusive and do not appear here.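 How the source made its calls: active means activation of at least 60% and not above a set upper limit (about 1 call in 100 departs from these limits); inconclusive means activation of 40% to 60%, or above that upper limit; inactive means activation under 40%.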 The list shows a part of the results. Some structures have more than one record in an assay (separate samples or runs), and their calls can disagree.

Sequence of UniProt O75388 (O75388 whole entry, looked up): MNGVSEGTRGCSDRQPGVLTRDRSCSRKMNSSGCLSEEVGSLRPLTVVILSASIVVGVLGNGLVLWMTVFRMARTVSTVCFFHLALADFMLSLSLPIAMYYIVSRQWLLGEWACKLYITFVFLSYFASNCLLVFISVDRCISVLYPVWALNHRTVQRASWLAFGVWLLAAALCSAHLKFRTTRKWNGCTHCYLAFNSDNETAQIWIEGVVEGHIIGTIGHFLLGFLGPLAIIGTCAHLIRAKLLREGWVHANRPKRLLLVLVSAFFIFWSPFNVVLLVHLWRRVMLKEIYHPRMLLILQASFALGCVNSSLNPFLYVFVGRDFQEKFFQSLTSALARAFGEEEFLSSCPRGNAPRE

In this experiment the target is Probable G-protein coupled receptor 32 (Homo sapiens) (UniProt O75388). Briefly: qHTS for Agonists of Human Resolvin D1 Receptor DRV1. Further: 0% is about no effect. Conditions: CHO-K1 GPR32 beta-arrestin PathHunter luminescence, 90 min; at 76.9 µM; stronger effect = higher value; zero percent set by DMSO-only wells. The gist of the method:
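Step 1: seed CHO-K1 GPR32 beta-arrestin cells, 2,500/well, overnight at 37 °C. Step 2: add compounds, 90 min at 37 °C. Step 3: detection reagent, 1 h ambient, then luminescence.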
(In general: Quantitative high-throughput screening tests each substance at several concentrations.)
As for `COc1ccc(Nc2ncc(C(=O)N3CCN(c4ccccc4OC)CC3)c3ccccc23)cc1`, the activation is inactive: -13.2%.

Consider `CCOC(=O)c1ccc(NC(=O)CN2C(=O)c3cccnc3Sc3ccccc32)cc1`, for which the activation is inactive: -5.05%.

Take `CCOc1ccc(C(=O)NCCc2sc(-c3ccc(F)cc3)nc2C)cc1`: the activation was inactive: 15.5%.

For the molecule `CO[C@@]1(NC(=O)CSCC#N)C(=O)N2C(C(=O)O)=C(CSc3nnnn3C)CS[C@@H]21`, the activation is active: 64% and inactive: 6.25%.

Regarding `O=C(Cn1ncc2c3ccccc3n(Cc3cccc(Cl)c3)c2c1=O)NCCC1=CCCCC1`, the activation was inactive: 0.249%.

In the case of `Cc1ccccc1Cn1c(=O)n(CCCCCC(=O)NCc2ccc3c(c2)OCO3)c(=O)c2sccc21`, the activation was inactive: -25.6%.

As for `COc1ccc(NC(=O)CSc2ncc3c(n2)-c2ccccc2N(C)S3(=O)=O)cc1Cl`, the activation is inactive: -44.5%.

`CCN(CC)c1ccc(CNS(=O)(=O)c2cc3c(cc2C)NC(=O)CO3)cc1`: the activation was inactive: -8.53%.

As to `Cn1c(SCc2ccccc2Cl)nc(=O)c2c1NC(=O)CC2c1cc(F)ccc1F` (stereo not drawn), the activation is inactive: -3.29%.

Turning to `CCOc1ccc(NC(=O)Nc2c[nH]c(=O)[nH]c2=O)cc1`, the activation was inactive: 14.3%.

Take `CCOC(=O)c1ccccc1NC(=O)Cn1c(=O)n(-c2ccc(CC)cc2)c(=O)c2c(C)c(C(=O)N(C)C)sc21`: the activation is inactive: -7.87%.

`CCOc1ccccc1CNC(=O)c1ccc2c(c1)nc1n2CCC(C)C1` (stereo not drawn): the activation is inactive: -3.8%.

In the case of `Cc1ccc(N2CC(NC(=O)c3ccccc3Br)CC2=O)cc1` (stereo not drawn), the activation is inactive: -5.68%.

Regarding `O=C(Nc1ccc(F)c(Cl)c1)C1CCN(S(=O)(=O)c2ccc3c(c2)CCCN3C(=O)C2CCC2)CC1`, the activation was inactive: 2.54%.

Consider `Cc1ccc(CSc2cn(CCNC(=O)c3cccs3)c3ccccc23)cc1`, for which the activation was inactive: 17.7%.

On to `CC(C)Sc1nc2sc3c(c2c(=O)n1-c1ccccc1)CCCC3`, for which the activation was inactive: -28.2%.

For `CC(=O)c1ccc(N2C(=O)Nc3ccccc3S2(=O)=O)cc1`, the activation was inactive: 33.4%.

With `Nc1ncc(S(=O)(=O)Nc2ccc(OC(F)(F)F)cc2)cn1`, the activation is inactive: -21.7%.

For the molecule `COC(=O)c1c(NC(=O)/C=C/c2ccc(OC)cc2)sc2c1CCC2`, the activation is inactive: 4.25%.

As for `O=C1CCCc2c(O)cccc21`, the activation is inactive: -3.16%.

Turning to `CC(C)c1cnc2c(c1SCC(=O)Nc1ccc(C(N)=O)cc1)c(=O)n(C)c(=O)n2C`, the activation is inactive: -22%.

As for `CCOC(=O)Cn1c(-c2cccs2)cc2cc(Cl)ccc21`, the activation is inactive: -11.5%.

Take `COc1ccc(CNC(=O)CSc2ncc3c(n2)-c2cc(Cl)ccc2N(C)S3(=O)=O)cc1`: the activation was inactive: -7%.
